From PubChem BioAssay AID1159614 (National Center for Advancing Translational Sciences (NCATS), 2016)
Screen size: about 45,000 compounds; about 65 (0.1%) were called active. Calls come from the whole dose curve; as a rule, active = well fitted activation curve with a large enough effect; inconclusive = small, poorly fitted or top-dose-only effect; inactive = no such curve, though single readings can be large or run the other way. The list shows a part of the results.

Target: Galactocerebrosidase (Homo sapiens) (UniProt P54803)
UniProt P54803, sequence (P54803 whole entry, looked up): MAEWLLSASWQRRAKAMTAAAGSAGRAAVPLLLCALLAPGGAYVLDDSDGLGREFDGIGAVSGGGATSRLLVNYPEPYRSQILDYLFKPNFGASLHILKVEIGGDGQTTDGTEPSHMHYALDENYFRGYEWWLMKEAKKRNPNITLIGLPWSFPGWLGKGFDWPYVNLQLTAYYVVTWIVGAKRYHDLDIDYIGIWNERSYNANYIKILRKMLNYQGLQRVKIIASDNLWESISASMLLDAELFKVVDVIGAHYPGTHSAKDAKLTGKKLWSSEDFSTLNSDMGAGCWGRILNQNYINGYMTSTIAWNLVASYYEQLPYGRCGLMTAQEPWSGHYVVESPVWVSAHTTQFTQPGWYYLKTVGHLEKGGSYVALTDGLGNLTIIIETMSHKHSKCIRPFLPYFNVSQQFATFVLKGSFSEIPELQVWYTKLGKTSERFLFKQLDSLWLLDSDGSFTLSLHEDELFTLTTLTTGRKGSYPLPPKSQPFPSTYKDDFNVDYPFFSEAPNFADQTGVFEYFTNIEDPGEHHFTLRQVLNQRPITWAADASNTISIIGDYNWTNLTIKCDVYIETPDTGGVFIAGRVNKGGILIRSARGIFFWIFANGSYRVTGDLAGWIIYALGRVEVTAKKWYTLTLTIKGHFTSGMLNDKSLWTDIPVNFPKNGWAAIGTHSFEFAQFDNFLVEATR
Experiment: A Novel Cell-Based Assay to Identify Small Molecules for B -Galactocerebrosidase; note: 0% is about no effect; nearly all actives have a fitted effect of over 65% in size
Settings: 145M-Twi-hGALC-G270D cells (Twitcher mouse brain line with human GALC G270D), HMU-beta-Gal fluorescence, 48 h; series mostly up to 57.5 µM; activation: at the top concentration
Outline: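 Fluorescence readout: HMU-β-gal cleavage by mutant GALC (0.1 mM final, citrate/phosphate pH 5.2 with 1 mg/mL taurocholate), stopped with carbonate/bicarbonate plus Triton X-100. Cells: murine Twitcher 145M-Twi expressing human G270D GALC; qHTS for activators.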

activation, inactive:
CC(C)NC(=O)c1ccc(Cn2c(SCC(N)=O)nc3ccccc3c2=O)cc1 -14.9%
Cc1ccc(CCNC(=O)c2ccc3nc(N4CCC(C)CC4)sc3c2)cc1 -3.68%
CCOc1ccc(C2CC(=O)Nc3nc(SCc4ccccc4C)[nH]c(=O)c32)cc1OC (centres undefined) -11.1%
Cc1ccc(C)c(NC(=O)n2ncc3cc(Cl)ccc32)c1 -11.1%
COC(=O)C(C)Sc1ccc2nnc(CCNS(=O)(=O)c3ccc(C)cc3)n2n1 (centres undefined) -3.98%
COCCCNC(=O)Cn1cnc2sc(C)c(S(=O)(=O)N3CCC(C)CC3)c2c1=O -31.6%
Cc1ncc(CO)c2c1Oc1nc(-c3ccccc3Cl)nc(SCc3ccccc3F)c1C2 -4.39%
CCC(Oc1ccccc1-c1nnc(-c2ccccc2)o1)C(=O)Nc1ccc(C(C)=O)cc1 (centres undefined) -5.64%
COC(=O)c1ccc(NC(=O)CSc2ccc(-c3sc(-c4ccccc4)nc3C)nn2)cc1 -12.1%
COC(=O)c1cc2oc(C)cc2n1Cc1ccc(Br)cc1F -9.13%
CCc1ccc(-n2c(=O)c3cccnc3n2CC(=O)NCc2ccccc2)cc1 -11.9%
COc1cc(Cl)c(C)cc1Nc1nc2ccccc2c2nnc(C)n12 -24.3%
O=C(NCc1cccnc1)c1nn(-c2ccc(Cl)cc2)nc1CO 0.508%
COc1ccc2nc(N(Cc3cccnc3)C(C)=O)sc2c1 -20.6%
COc1ccc(C2CC(=O)N3CN(C4CCCCC4)CSC3=C2C#N)c(OC)c1 (centres undefined) -1.22%
COc1ccccc1C1CC(=O)NC(C)=C1C(=O)OC1CCCCCC1 (centres undefined) -5.36%
O=C(NC1CC(=O)N(c2ccc(F)cc2)C1)c1ccco1 (centres undefined) -16.3%
COc1ccc(Nc2ncc3c(n2)CCN(Cc2ccccc2C)C3)c(OC)c1 -16.1%
O=C(Nc1cccc(C(F)(F)F)c1)c1ccc2c(c1)nnn2C1CCCC1 -0.231%
COC(=O)c1c(C)oc2ccc(N(C(=O)c3ccncc3)S(=O)(=O)c3ccc(OC)cc3)cc12 -19.4%
COc1ccc(S(=O)(=O)NCCc2nnc3ccc(SCC(=O)Nc4ccccc4C)nn23)cc1 -4.88%
CCc1ccc(-n2c(=O)c3c4c(sc3n(Cc3ccccc3C#N)c2=O)CCC4)cc1 16.4%
CN(C)c1ccc(CNS(=O)(=O)c2ccc(-c3cc(C(F)(F)F)on3)s2)cc1 -10.8%
COc1cc2c(cc1OC)CN(C(=O)Nc1ccccc1)CC2 7.47%
Cn1cc(CN(C(=O)Nc2ccccc2)C2CCCCC2)c2ccccc21 3.02%
COc1ccc(-c2nc3sc(CCNC(=O)c4ccco4)c(C)n3n2)cc1 2.4%
CCS(=O)(=O)Nc1ccc(-c2cn3ccsc3n2)cc1 -15.1%
CCCCn1c(=N)n(CCCOc2ccc(F)cc2)c2ccccc21 -0.358%
COc1ccccc1NC(=O)c1ccc(COc2ccc(C)c(C)c2)o1 -6.77%
Cc1cccc(N2CCN(S(=O)(=O)c3c(C)nc4scc(C)n4c3=O)CC2)c1C -36.4%
CCn1cc2nc(SCc3cc(C)ccc3C)n(CCc3ccccc3)c(=O)c2n1 -14.1%
CCCCn1c(=O)c2oc3ccccc3c2n(CC(=O)Nc2ccc(CC)cc2)c1=O -6.13%
Cc1ccc(NC(=O)CC2Oc3ccccc3NC2=O)cc1C (centres undefined) -13.4%
Cc1c(C(=O)NCc2cccc(Cl)c2)sc2nc3n(c(=O)c12)CCCC3 -18.1%
COc1ccc(CCNC(=O)CN2C(=O)COc3ccc(S(=O)(=O)N4CCCC4)cc32)c(OC)c1 -27.5%
COc1ccc(-c2cnnn2-c2ccc(NC(=O)c3ccccc3OC)cc2)cc1 -10.3%
Nc1nn(-c2ccccc2)nc1C(=O)OCc1ccc(Cl)cc1 -1.82%
COc1ccc(-c2nc3sc(CCNC(=O)C(=O)Nc4cccc(NC(C)=O)c4)c(C)n3n2)cc1 -17%
COc1c(C)cccc1C(=O)Nc1ccc(-c2nc3ccccc3s2)c(Cl)c1 -16.6%
Cc1c(C(=O)NCc2cccc(Br)c2)oc2ccc3c(c12)C(=O)CC(C)(C)O3 0.148%
Cn1c(=O)n(Cc2c(F)cccc2Cl)c(=O)c2c1nc1n2CCN1c1ccc(F)cc1 -0.26%
CCN(CC)CCCNC(=O)c1ccc(Cn2c(SCc3ccccc3)nc3cccnc32)cc1 -16.2%
COCCNC(=O)c1nn(-c2ccc(C)cc2)c(=O)c2c1c1ccccc1n2C -4.82%
Cc1ccc(CCNC(=O)C2CCCN(c3nnc(C)c4c(C)n(-c5ccccc5)nc34)C2)cc1 (centres undefined) -8.47%
COc1ccc(-c2cn3nc(N4CCCC(C(=O)NCc5ccc(Cl)cc5)C4)sc3n2)cc1 (centres undefined) -14.5%
CC1=C(C(=O)NCc2ccccc2F)C2(CCCCC2)OC1=O -0.167%
CC1=C(c2ccc(F)cc2)S(=O)(=O)N=C1N1CCC(C(=O)NCCc2cccc(C)c2)CC1 -19.8%
Cc1ccc(CSc2ncc(Cl)c(C(=O)Nc3nnc(C)s3)n2)cc1 -7.42%
COc1cccc(-c2nc(CS(=O)(=O)CC(=O)NCc3cccc(Cl)c3)c(C)o2)c1 -16.2%
O=C(Nc1ccccc1Cl)N1CCC(CN2CCCC2)CC1 -6.85%
Cc1ccc(NC(=O)CN2C(=O)c3cccnc3Oc3ccc(Cl)cc32)cc1 3.58%
O=C(NCc1ccc2c(c1)CCN2C(=O)c1ccccc1)Nc1cccc(C(F)(F)F)c1 -18.8%
Cc1ccccc1OCCSc1nc2ccc(NC(=O)c3cccc(F)c3)cc2s1 -32.5%
COc1ccc(Cn2ccnc2SCC(=O)Nc2nc3ccccc3s2)cc1 -6.92%
CN(C)CCCNc1cc(N2CCN(C3CCCCC3)CC2)c2noc3c2c1C(=O)c1ccccc1-3 -17.7%
COc1cc2ncc3c(-c4ccc(C)cc4)nn(-c4ccc(F)cc4F)c3c2cc1OC -7.04%
COc1ccc(NC(=O)c2cc3c(s2)-c2c(C)cccc2OC3)cc1Cl -14.1%
CCOC(=O)c1c(C)n(-c2ccccc2)c2ccc(OC(=O)COc3ccc(Cl)cc3)cc12 -16.8%
Cc1ccccc1-c1nc(CN2CCC(C(=O)NCc3ccc(F)cc3)CC2)c(C)o1 0.0448%
CC(=O)c1ccc(NC(=O)c2ccc3c(c2)N(Cc2cccc(Cl)c2)C(=O)c2ccccc2S3=O)cc1 (centres undefined) -2.13%
Cc1c(C(=O)NCc2ccccc2Cl)sc2ncnc(N(C)C3CCCCC3)c12 -5.05%
Cc1ccc(C(C)C)c(O)c1 -15.3%
Cc1cc(Nc2ccccc2C)n2nc(Cc3ccc(Cl)cc3)nc2n1 -10.9%
Cc1ccn2c(Nc3ccc4c(c3)OCCO4)c(-c3ccc(C)o3)nc2c1 -14%
Cn1c(=O)oc2cc(S(=O)(=O)CCC(=O)N3CCN(c4cccc(Cl)c4)CC3)ccc21 -25.5%
O=C(NCc1ccccc1)c1ccc(NC(=O)N2CC3CCCN3c3ccccc32)cc1 (centres undefined) -9.43%
CCOc1cc(C(=O)Nc2ccc(-c3cn4cccnc4n3)cc2)cc(OCC)c1OCC -12.5%
CCNC(=O)C1CCN(S(=O)(=O)c2ccc3c(c2)CCCN3C(C)=O)CC1 -18%
CCCN(CCC)c1ccc(C2N=C(N)Nc3nc4ccccc4n32)cc1 (centres undefined) -11.5%
Cc1cccc(NC(=O)C2CCCN2S(=O)(=O)c2ccc3nc(-c4ccccc4)[nH]c3c2)c1 (centres undefined) -10.3%
Cc1nc2ccccn2c(=O)c1NC(=O)c1ccc(F)c(F)c1 -9.52%
Cc1ccc2c(c1)c1c(c(=O)n(-c3ccccc3)c(=O)n1CC(=O)NCC1CCCO1)n2C (centres undefined) 0.103%
Cc1ccc(S(=O)(=O)c2nnn3c2nc(NCc2ccc4c(c2)OCO4)c2sccc23)cc1C -1.36%
CCCCNC(=O)CCCCCn1c(=O)[nH]c2ccccc2c1=O -25%
Cc1ccc(C)c(N2CCN(S(=O)(=O)c3cc(C(=O)Nc4ccc(Oc5ccccc5)cc4)ccc3F)CC2)c1 -42%
Cc1cccc(N2CCN(Cc3nnc(-c4cccc(Br)c4)o3)CC2)c1C -20.7%
Cc1ccc(Cl)cc1NC(=O)CN1C(=O)c2ccccc2Sc2ncccc21 -10.9%
Cc1ccc(CNS(=O)(=O)c2c(C)nc3sc(C)cn3c2=O)cc1 -11.2%
CCc1ccc(-c2nc(CS(=O)CC(=O)NCc3ccc(F)cc3)c(C)o2)cc1 (centres undefined) -0.613%
CCCn1cnc2cc(NC(=O)c3cc(OC)c(OC)c(OC)c3)ccc21 -5.5%
COc1ccc(CCNC(=O)c2ccc3c(c2)nc2n3CCCCC2)cc1OC -3.62%
O=C(NCc1cccc(Cl)c1)C1CCCN(c2nn3cc(-c4ccc(F)cc4)nc3s2)C1 (centres undefined) -8.99%
COc1ccccc1NC(=O)Cn1c(=O)oc2cc(S(=O)(=O)NCc3ccccc3)ccc21 -35.2%
Clc1ccc2nc(-c3ccc(N4CCOCC4)cc3)c(Nc3ccccc3)n2c1 -24.5%
CCCOC(=O)c1cccc(NC(=O)CSc2nnc3cc(C)c4ccccc4n23)c1 -5.25%
CC(=O)c1ccc(NC(=O)c2nc(-c3ccccc3)n(-c3ccc(C)cc3)n2)cc1 1.98%
CCOc1ccc(S(=O)(=O)c2cc3cccc(OCC)c3oc2=O)cc1 -15.5%
CC1CCc2c(sc3nnn(Cc4ccccc4Cl)c(=O)c23)C1 (centres undefined) -12.6%
CCc1ccccc1N(C)C(=O)c1nn(-c2ccc(OC)cc2)c(=O)c2c1c1ccccc1n2C -16.9%
Cc1cccc(NC(=O)c2ccc3oc(=O)c(S(=O)(=O)c4ccc(F)cc4)cc3c2)c1C -22.5%
CCOc1ccc(CNc2cc(C)nc3nc(-c4cccc(C)c4)nn23)cc1OC -32%
Cc1ccc(NCc2cc3cc4c(cc3n(CC(=O)Nc3ccc(C)cc3)c2=O)OCCO4)cc1 -10.1%
CCOc1ccccc1NCc1nnc2n1CCCCC2 -6.32%
Cc1ccc(-c2nnc3c4ccccc4c(-c4ccccc4)nn23)cc1 4.49%
CC(C)NC(=O)CSc1cn(CC(=O)N2CCCCCC2)c2ccccc12 5.44%
COc1ccc(N2CCN(C(=O)c3cnc(N4CCOCC4)c4ccccc34)CC2)cc1 1.25%
CCOc1ccccc1CNCc1c(C(=O)O)n(Cc2ccccc2)c2cc(OC)ccc12 -3.05%
CC1CCC(NC(=O)c2ccc3c(c2)N(Cc2ccccc2F)C(=O)c2ccccc2S3(=O)=O)CC1 (centres undefined) -15.4%
CCOc1ccccc1Oc1ncnc2c1oc1ccccc12 -13.1%
